Laboratory results from article PMC11282193, “Mst1-mediated phosphorylation of FoxO1 and C/EBP-β stimulates cell-protective mechanisms in cardiomyocytes”.
These are yes or no findings as the source states them, for the method shown. For some assays here: Binding seen in cells or lysates may run through a third protein. Some results given as binding are weak or reduced against the parent protein; the word gives no strength. For some assays here: Where a sequence is shown, tags or fusion partners need not be part of it.

Sequences of proteins named here, by UniProt entry; tags and fusion partners are left off. A change or cut given only in a name is not applied to a line headed by its entry. A line that says so, or that is headed by a name, gives the form on record, which may keep a tag or linker.
UniProt P17676: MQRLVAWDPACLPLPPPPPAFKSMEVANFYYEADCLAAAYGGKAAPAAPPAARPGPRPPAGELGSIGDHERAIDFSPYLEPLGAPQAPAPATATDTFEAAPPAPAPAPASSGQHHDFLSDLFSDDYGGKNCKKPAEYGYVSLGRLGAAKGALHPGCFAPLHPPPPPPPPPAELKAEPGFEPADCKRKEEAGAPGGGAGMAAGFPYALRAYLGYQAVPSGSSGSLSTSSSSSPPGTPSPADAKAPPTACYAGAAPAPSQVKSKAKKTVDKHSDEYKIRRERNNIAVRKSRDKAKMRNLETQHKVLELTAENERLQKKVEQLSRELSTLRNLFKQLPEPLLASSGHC
C/EBP-β Thr299Glu phospho-mimetic (PM) mutant, expressed in cardiomyocytes (P17676, form named): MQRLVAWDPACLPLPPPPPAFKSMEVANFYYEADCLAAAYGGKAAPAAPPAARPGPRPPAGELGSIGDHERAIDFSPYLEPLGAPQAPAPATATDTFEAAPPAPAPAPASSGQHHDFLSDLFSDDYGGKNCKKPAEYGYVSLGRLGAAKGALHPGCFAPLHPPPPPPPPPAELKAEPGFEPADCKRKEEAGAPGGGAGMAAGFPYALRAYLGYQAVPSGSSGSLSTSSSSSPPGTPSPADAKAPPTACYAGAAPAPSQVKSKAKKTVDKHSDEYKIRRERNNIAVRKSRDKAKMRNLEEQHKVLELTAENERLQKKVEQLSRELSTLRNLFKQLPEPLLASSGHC
UniProt Q9R1E0: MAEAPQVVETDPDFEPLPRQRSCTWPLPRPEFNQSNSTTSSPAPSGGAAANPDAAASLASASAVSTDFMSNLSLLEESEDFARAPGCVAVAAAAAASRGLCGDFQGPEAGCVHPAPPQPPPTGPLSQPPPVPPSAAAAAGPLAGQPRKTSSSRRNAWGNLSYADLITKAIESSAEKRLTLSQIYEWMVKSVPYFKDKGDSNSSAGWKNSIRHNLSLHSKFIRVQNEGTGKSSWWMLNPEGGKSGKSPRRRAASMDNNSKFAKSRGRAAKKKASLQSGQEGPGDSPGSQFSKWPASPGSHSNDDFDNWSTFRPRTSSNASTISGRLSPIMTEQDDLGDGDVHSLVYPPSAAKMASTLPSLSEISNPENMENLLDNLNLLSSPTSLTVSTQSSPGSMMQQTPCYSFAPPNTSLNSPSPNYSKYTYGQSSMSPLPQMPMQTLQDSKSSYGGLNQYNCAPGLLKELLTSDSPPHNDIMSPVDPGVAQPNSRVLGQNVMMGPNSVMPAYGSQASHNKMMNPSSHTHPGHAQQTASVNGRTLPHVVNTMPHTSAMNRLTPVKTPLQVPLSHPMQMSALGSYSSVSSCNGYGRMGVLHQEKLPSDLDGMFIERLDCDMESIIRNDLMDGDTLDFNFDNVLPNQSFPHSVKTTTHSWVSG

How the values were obtained:
[1] = target: T1, 3xFlag-Mst1-WT (UniProt Q13043); assay: pull-down; in vitro; recombinant GST-FoxO1 proteins (called preys in the legend) with 3xFlag-Mst1-WT; PBS with 0.5% Triton X-100, 4 °C, glutathione Sepharose 4B; immunoblot and CBB staining; both purified
T1 sequence: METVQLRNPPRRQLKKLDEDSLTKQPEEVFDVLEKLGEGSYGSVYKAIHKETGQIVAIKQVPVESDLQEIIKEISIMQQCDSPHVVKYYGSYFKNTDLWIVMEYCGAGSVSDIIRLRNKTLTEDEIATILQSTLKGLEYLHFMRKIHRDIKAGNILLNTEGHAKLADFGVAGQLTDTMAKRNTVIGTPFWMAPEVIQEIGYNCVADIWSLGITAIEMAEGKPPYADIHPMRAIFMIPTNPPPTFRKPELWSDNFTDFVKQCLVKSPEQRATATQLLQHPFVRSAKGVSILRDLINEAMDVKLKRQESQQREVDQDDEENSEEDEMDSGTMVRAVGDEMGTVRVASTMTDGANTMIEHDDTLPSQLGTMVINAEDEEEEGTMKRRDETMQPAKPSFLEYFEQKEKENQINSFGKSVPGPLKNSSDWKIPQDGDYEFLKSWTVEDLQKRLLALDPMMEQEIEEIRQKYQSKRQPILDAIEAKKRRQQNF

[2] = target: C/EBP-β in cultured cardiomyocyte lysates (co-immunoprecipitation with FoxO1) (not stated (endogenous rat C/EBP-β or adenoviral human C/EBP-β)) (UniProt P17676); assay: co-IP; cultured cardiomyocytes expressing FoxO1(S209A) or FoxO1-PR in the presence of Mst1 (Supplementary Fig. 8e); which protein was precipitated is not told
[3] = target: 3×Flag-FoxO1-FL (mouse) (UniProt Q9R1E0); assay: pull-down; in vitro; recombinant human GST-C/EBP-β proteins (called preys in the legend) with 3×Flag-FoxO1-FL; PBS with 0.5% Triton X-100, 4 °C, glutathione Sepharose 4B; both purified
[4] = target: C/EBP-β in cultured cardiomyocyte lysates (co-immunoprecipitation with FoxO1) (not stated (endogenous rat C/EBP-β or adenoviral human C/EBP-β)) (UniProt P17676); assay: co-IP; cultured cardiomyocyte lysates; C/EBP-β (WT, PM or PR) immunoprecipitated, FoxO1 detected; with or without overexpression of Mst1 or DN-Mst1; RIPA buffer
[5] = target: C/EBP-β Thr299Glu phospho-mimetic (PM) mutant, expressed in cardiomyocytes (human) (UniProt P17676); assay: as above
[6] = target: T2, Mammalian sterile 20-like kinase 1 (Mst1), endogenous in mouse heart (mouse (endogenous in heart)) (UniProt Q9JI11); assay: co-IP; heart homogenates; immunoprecipitation with anti-Mst1 or control IgG, immunoblot with anti-FoxO1; at baseline and after 2 weeks of transverse aortic constriction
T2 sequence: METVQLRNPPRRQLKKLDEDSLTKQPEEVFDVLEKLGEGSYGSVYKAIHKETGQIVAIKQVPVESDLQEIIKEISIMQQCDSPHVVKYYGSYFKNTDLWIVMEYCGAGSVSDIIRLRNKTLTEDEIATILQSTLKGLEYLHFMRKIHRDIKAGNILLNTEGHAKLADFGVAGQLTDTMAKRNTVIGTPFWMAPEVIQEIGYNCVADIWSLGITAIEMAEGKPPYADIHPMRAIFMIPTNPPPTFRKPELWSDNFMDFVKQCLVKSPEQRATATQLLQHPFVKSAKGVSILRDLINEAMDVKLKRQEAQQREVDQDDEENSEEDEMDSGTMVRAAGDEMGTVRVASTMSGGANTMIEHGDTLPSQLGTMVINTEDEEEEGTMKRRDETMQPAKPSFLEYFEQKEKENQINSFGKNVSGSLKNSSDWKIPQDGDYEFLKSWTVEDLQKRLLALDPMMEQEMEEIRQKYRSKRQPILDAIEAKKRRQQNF

Row | Substance | binding [1] | binding [3] | further results
1 | FoxO1-CT1 (amino acid 280-421), GST fusion (from UniProt Q9R1E0 280-421) (domain or fragment) | no binding |  | 
2 | Recombinant full-length FoxO1 (FoxO1-FL: amino acid 1-652), GST fusion (from UniProt Q9R1E0 1-652) | binds |  | 
3 | FoxO1 phospho-resistant (PR) mutant (Ser209, Ser215, Ser218, Thr228, Ser232 and Ser243 replaced with alanine), expressed from adenovirus in cardiomyocytes (from UniProt Q9R1E0 1-652) |  |  | binding [2]: no binding
4 | FoxO1-NT (amino acid 1-118), GST fusion (from UniProt Q9R1E0 1-118) (domain or fragment) | no binding |  | 
5 | FoxO1(S209A), expressed from adenovirus in cardiomyocytes (from UniProt Q9R1E0 1-652) |  |  | binding [2]: binds
6 | FoxO1-CT2 (amino acid 421-652), GST fusion (from UniProt Q9R1E0 421-652) (domain or fragment) | no binding |  | 
7 | C/EBP-β-TA (1-134), GST fusion (from UniProt P17676 1-134) (domain or fragment) |  | no binding | 
8 | FoxO1 in cultured cardiomyocyte lysates (co-immunoprecipitation with C/EBP-β) (from UniProt Q9R1E0 1-652) |  |  | binding [4]: binds; binding [5]: binds
9 | DNA-binding domain of FoxO1 (FoxO1-DBD: amino acid 111-280), GST fusion (from UniProt Q9R1E0 111-280) (domain or fragment) | binds |  | 
10 | FoxO1, endogenous in mouse heart (from UniProt Q9R1E0 1-652) |  |  | binding [6]: binds
11 | Recombinant full-length human C/EBP-β (C/EBP-β-FL: amino acid 1-345), GST fusion (from UniProt P17676-1 1-345) |  | binds | 
12 | C/EBP-β-MID (135-240), GST fusion (from UniProt P17676 135-240) (domain or fragment) |  | no binding | 
13 | C-terminal domain of C/EBP-β (C/EBP-β-CT: 241-345), GST fusion (from UniProt P17676 241-345) (domain or fragment) |  | binds | 
